# The whole screen tested about 44,000 compounds, of which about 340 (0.77%) were called active. About 5% were inconclusive and are not listed. The call rests on the fitted dose curve; in most records, active means well fitted inhibition curve with a large enough effect; inconclusive means small, poorly fitted or top-dose-only effect; inactive means flat fitted curve, though single readings scatter. This is one part of the list.
# Test: Acumen qHTS Assay for Inhibitors of the mTORC1 Signaling Pathway in MEF (Tsc2-/-, p53-/-) Cells: Sytravon; further: nearly all actives have a fitted effect of over 50% in size;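 on activity change, negative = inhibition: plate controls were DMSO for no effect and rapamycin for full effect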
# Details: phospho-rpS6 immunofluorescence/PI, 24 h; series mostly up to 38.3 µM; activity change, negative = inhibition: at the top concentration
# In short: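 Read-out: phospho-S6 Alexa-488 intensity over PI intensity per well, scored as % active cells using thresholds from rapamycin (7.5 nM) and DMSO controls. Tsc2-/-, p53-/- MEFs exposed to compound for 24 h; PI cell count recorded as viability.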
# Potency means the concentration at half of the fitted maximal effect.
Compound,"activity change, negative = inhibition",Potency
Nc1c(C(=O)Nc2ccc(F)c(F)c2)sc2nc(-c3ccncc3)ccc12,inactive: -2.74%,–
COC(=O)c1cc(NC(=O)c2nn(C)c3c2COc2ccccc2-3)cc(C(=O)OC)c1,inactive: -17.2%,–
COc1ccc(S(=O)(=O)Nc2ccc3c(c2)CCCN3S(=O)(=O)c2ccc(C)cc2)cc1F,inactive: 8.17%,–
COc1cccc(CNC(=O)c2cc(C)nc3c2c(C)nn3-c2cccc(F)c2)c1,inactive: -18.8%,–
O=C(COCc1cc(-c2ccc3c(c2)OCO3)on1)N1CCN(c2ccccc2)CC1,inactive: -1.47%,–
COc1ccccc1NC(=O)C1=C(C)Nc2nc(SCc3ccccc3F)nn2C1c1cccs1 (configuration not stated),inactive: 0%,–
Cc1ccc(S(=O)(=O)NCCc2cn3ccsc3n2)cc1,inactive: 3.61%,–
COc1ccc(-n2nnnc2C2CCN(S(=O)(=O)c3ccc(C(C)(C)C)cc3)CC2)cc1,inactive: -5.25%,–
CCC(CC)C(=O)Nc1nc2c(s1)CC(C)CC2 (configuration not stated),inactive: -2.39%,–
COc1ccccc1CCNS(=O)(=O)c1ccc(N2CCCCS2(=O)=O)cc1,inactive: 9.69%,–
COc1ccc(NC(=O)CCc2nnc3n(CC(C)C)c(=O)c4ccccc4n23)cc1,inactive: -0.0948%,–
COc1ccc(CNC(=O)c2ccc(CS(=O)Cc3ccccc3Cl)o2)cc1 (configuration not stated),inactive: -2.89%,–
Cc1ccc(C2c3[nH]c4ccccc4c3CCN2C(=O)CCC2CCCC2)cc1 (configuration not stated),inactive: -28.8%,–
Cc1nc2ccn(Cc3ccco3)c(=O)c2cc1C(=O)N1CCN(c2ccccc2)CC1,inactive: -0.394%,–
CCc1ccccc1NC(=O)C1CCCN(c2ncnc3onc(C)c23)C1 (configuration not stated),inactive: -23.3%,–
O=C(c1ccc(CSc2nc3ccncc3n2Cc2ccccc2)cc1)N1CCCCCC1,inactive: 2.41%,–
Cc1ccc(-n2nc(C(=O)N3CCN(c4cc(Cl)ccc4C)CC3)c3c4ccccc4n(C)c3c2=O)cc1,inactive: -9.22%,–
Cc1ccc(Cl)cc1-n1ncc2c(Nc3cccc(C)c3C)ncnc21,inactive: 0.931%,–
Cc1ccc(NC(=O)Cn2ccn(-c3ccc(F)c(F)c3)c(=O)c2=O)cc1C,inactive: 9.72%,–
C=Cc1ccc(CSc2nc(-c3ccc(C)cc3)nc3c2Cc2c(CO)cnc(C)c2O3)cc1,inactive: 1.29%,–
CC(C)c1ccc(OCC(=O)N(Cc2ccc(N(C)C)cc2)C2CCS(=O)(=O)C2)cc1 (configuration not stated),inactive: -1.14%,–
O=C(Nc1cccc(C(=O)OCc2cc(=O)n3c4c(sc3n2)CCCC4)c1)c1ccccc1,inactive: 2.97%,–
Cc1cccc(NC(=O)C(NS(=O)(=O)c2ccc3c(c2)oc(=O)n3C)C(C)C)c1 (configuration not stated),inactive: 0.974%,–
O=c1c(S(=O)(=O)c2cccc(Cl)c2)cn(Cc2ccccc2)c2cc(N3CCOCC3)c(F)cc12,inactive: 0.103%,–
Cc1ccc2nc(-c3cccnc3)c(Nc3ccccc3C)n2c1,inactive: 2.15%,–

Compound,"activity change, negative = inhibition",Potency
CCOc1ccc(S(=O)(=O)Nc2nc3ccccc3nc2Nc2ccc(OC)cc2)cc1,inactive: 5.61%,–
Cc1cc(C)c2nc(N(Cc3cccnc3)C(=O)CCOc3ccccc3)sc2c1,inactive: -2.63%,–
CCc1ccc(NC(=O)Cn2c(=O)n(Cc3ccco3)c(=O)c3cccnc32)cc1,inactive: -6.09%,–
COc1cc(CCC(=O)NCc2ccc3c(c2)CCN3C(=O)c2ccc(F)cc2)cc(OC)c1OC,inactive: -5.06%,–
CCOC(=O)c1c(SCC(=O)Nc2cc(Cl)cc(Cl)c2)nc(=O)[nH]c1C,inactive: -4.74%,–
COc1ccc2ncc3c(-c4ccc(C)c(C)c4)nn(CC(=O)NC4CCCC4)c3c2c1,inactive: 0.753%,–
COc1ccc(-c2nc3c(c(SCC(=O)N(C)c4ccccc4)n2)Cc2cc(C)ccc2O3)cc1,inactive: 0.247%,–
CCCCNC(=O)C1CCC(CNS(=O)(=O)c2ccc(NC(C)=O)cc2)CC1 (configuration not stated),inactive: -7.35%,–
Cc1ccc2nc(NCc3ccc(F)cc3)c3nncn3c2c1,inactive: 6.46%,–
Cc1nc(-c2ccc(S(=O)(=O)NCc3ccc(N(C)C)cc3)cc2)co1,inactive: -2.15%,–
CCN(CC)c1ccc(NC(=O)Cn2nc(C)n3cccc3c2=O)c(C)c1,inactive: -1.07%,–
Cc1cccc(-n2ncc3c(N4CCN(c5ccccc5)CC4)ncnc32)c1,inactive: 2.61%,–
CCc1ccccc1NC(=O)CCc1c(C)nn(-c2ccc(N3CCOCC3)nn2)c1C,inactive: -10.4%,–
CCc1nn2c(=O)cc(COC(=O)c3ccccc3NC(=O)C3CCCCC3)nc2s1,inactive: 7.19%,–
CCc1ccc(CNCc2c(C(=O)O)n(Cc3ccc(F)cc3Cl)c3cc(OC)ccc23)cc1,inactive: 1.29%,–
O=C(c1ccc(F)cc1)n1nc(-c2ccccc2)nc1NCc1ccc(F)cc1,inactive: -4.12%,–
COc1cc2ccccc2cc1C(=O)N1CCN(c2nc3ccc(F)cc3s2)CC1,inactive: -3.08%,–
CCC(Sc1nc2ccccc2c2nc(-c3ccccc3)nn12)C(=O)Nc1cccc(OC)c1 (configuration not stated),inactive: -0.296%,–
Cc1ccc2oc(=O)c3cnn(CC(=O)N4CCN(c5ccccc5)CC4)c3c2c1,inactive: -14.5%,–
COC(=O)c1c(NC(=O)CS(=O)(=O)c2ccc(C)cc2)sc2c1CCCC2,inactive: -3.64%,–
Cc1c(Cl)cccc1NC(=O)CCN1C(=O)c2ccccc2Sc2ncccc21,inactive: -12.3%,–
CCN(CC)C(=O)c1cc(-c2ccc(Cl)cc2)on1,inactive: 3.19%,–
CCN(C(=O)Cn1nnc2sc(-c3ccccc3)cc2c1=O)c1cccc(C)c1,inactive: -2.78%,–
Cc1cc(NC(=O)CCNS(=O)(=O)c2ccc3c(c2)oc(=O)n3C)ccc1Br,inactive: -15.9%,–
CCC(C)NC(=O)CSc1nc2n[nH]c(C)c2c(=N)n1-c1ccc(C)c(Cl)c1 (configuration not stated),inactive: -9.76%,–

Compound,"activity change, negative = inhibition",Potency
O=C(Nc1ccc(F)cc1F)c1cc2nc(-c3ccco3)cc(C(F)(F)Cl)n2n1,inactive: 0.11%,–
O=C(Nc1nnc(S(=O)(=O)N2CCCc3ccccc32)s1)c1ccccc1,inactive: 7.1%,–
COC(=O)c1cnn2c(C)c(Cc3c(C)cc(C)cc3C)c(C)nc12,inactive: 12.7%,–
COc1ccc(NC(=O)CCn2c(=O)c3cccn3c3ccccc32)c(OC)c1,inactive: 0.585%,–
CCC1CN(C(=O)Nc2cccc3c2CCCC3)c2ccccc2O1 (configuration not stated),inactive: -1.09%,–
Cc1ccc2c(=O)cc(C(=O)Nc3ccc(S(=O)(=O)N(C)Cc4ccccc4)cc3)oc2c1,inactive: 2.3%,–
Cc1ccc(CNC(=O)CN(c2ccc(C)cc2)S(=O)(=O)c2c(C)nn(C)c2C)cc1,inactive: -2.95%,–
CCN(CC)S(=O)(=O)c1ccc2c(c1)c(=O)c(C(=O)N1CCN(c3cccc(C)c3)C(C)C1)cn2C (configuration not stated),inactive: -17.6%,–
CC(=O)c1ccc(NC(=O)CN(C)S(=O)(=O)c2cccc3nsnc23)cc1,inactive: 13%,–
COc1ccccc1-c1cc2nc(C)c(CCC(=O)NCc3cccc(Cl)c3)c(C)n2n1,inactive: 0.21%,–
CCCCn1c(C(C)NC(=O)c2ccccc2)nc2ccccc21 (configuration not stated),inactive: 5.83%,–
COc1ccc(N2CC(NC(=O)C3CC3)CC2=O)cc1OC (configuration not stated),inactive: -1.96%,–
CCOC(=O)C1CCCN(CCC(=O)Nc2cccc(C)c2)C1 (configuration not stated),inactive: -2.22%,–
CCc1ccccc1NC(=O)c1cc(S(=O)(=O)N2CCCc3ccccc32)ccc1F,inactive: 13%,–
Cc1c(C(=O)Nc2ccc(F)cc2)sc2nc[nH]c(=O)c12,inactive: 0.04%,–
CC(C)CCn1c(=O)c2sccc2n2c(CCCC(=O)NCc3ccc(F)cc3)nnc12,inactive: -13.3%,–
Fc1cccc(-n2ncc3c2ncn2nc(-c4ccccc4Cl)nc32)c1,inactive: 5.39%,–
CCOc1ccc(N(C)C(CNS(=O)(=O)c2ccccc2)c2ccccc2)cc1 (configuration not stated),inactive: -14.9%,–
O=C(COc1ccccc1)Nc1cccc(-c2cn3cccnc3n2)c1,inactive: -3.04%,–
Cc1cccc(N2CCN(C(=O)CCn3c(=O)c4cccn4c4cccnc43)CC2)c1C,inactive: 2.32%,–
Cc1ccn2c(=O)c(C(=O)NC(C)c3ccccc3)c(O)nc2c1 (configuration not stated),inactive: -11%,–
CCOc1ccccc1CNC(=O)c1cccn1-c1nnc(N2CCCCC2)s1,inactive: -12.5%,–
COc1ccccc1N1CCN(C(=O)c2cc(-c3ccccc3O)on2)CC1,inactive: 8%,–
N#Cc1cccc(NC(=O)c2cc3c(s2)-c2ccc(Cl)cc2SC3)c1,inactive: -6.3%,–
COc1ccc(C2=C(Nc3ccc(C)c(C)c3)c3ccccc3C2=O)cc1,inactive: -3.48%,–

Compound,"activity change, negative = inhibition",Potency
CCc1nn(CC(=O)NCc2ccccc2Cl)c(=O)c2cccn12,–,active: 2610 nM
Cc1nc(-c2ccc(S(=O)(=O)Nc3ccc(C)c(N(C)C)c3)cc2)co1,inactive: -7.48%,–
COc1ccc(CCNC(=O)c2ccc3c(c2)N(Cc2ccc(F)cc2)CCS3)cc1OC,inactive: -5.18%,–
Cc1cc(C)cc(NC(=O)c2cccc3c2C(=O)N(C2CCCCC2)C3)c1,inactive: -5.82%,–
O=C(COc1ccccc1[N+](=O)[O-])Nc1ccc(-c2nc3ccccc3s2)cc1,inactive: -0.132%,–
Cc1nc(SCC(=O)Nc2ccccc2F)[nH]c(=O)c1Cc1ccccc1,inactive: -4.06%,–
O=S(=O)(c1ccccc1)c1nc(-c2cccs2)oc1SCc1ccc(F)cc1,inactive: -2.03%,–
COc1ccccc1-n1c(-c2ccc(C)cc2)cn2c3c(=O)n(C)c(=O)n(C)c3nc12,inactive: 9.75%,–
COc1ccc(S(=O)(=O)c2cc(NS(=O)(=O)c3ccc(Cl)cc3)c(C)c(C)c2O)cc1,inactive: 1.01%,–
COc1ccc(NC(=O)c2cnc[nH]2)cc1,inactive: -1.84%,–
COc1ccc(-c2cn3nc(SCC(=O)Nc4ccc(C)c(Cl)c4)ccc3n2)cc1,inactive: 6.88%,–
COC(=O)c1ccc(NC(=O)CN2C(=O)c3cccc4cccc2c34)cc1,inactive: 7.39%,–
Cc1ccc(NC(c2ccc(Cl)cc2)c2nnc(-c3cccc(F)c3)o2)cc1C (configuration not stated),inactive: -12.3%,–
CCN(CCCNC(=O)c1cc(Nc2ccccc2OC)nc2ccccc12)c1cccc(C)c1,inactive: -15%,–
COc1ccc(-c2noc(C3CC(=O)N(c4ccccc4)C3)n2)c(OC)c1 (configuration not stated),inactive: -2.74%,–
COc1ccc(OC)c(CCNC(=O)c2c3c(nc4ccccc24)C(=O)N(C2CCCCC2)C3)c1,inactive: 1.62%,–
Cc1cc(C)c(NC(=O)COc2ccc3c(C)cc(=O)oc3c2)c(C)c1,inactive: 2.22%,–
O=C(CSc1nc2c([nH]c3ccccc32)c(=O)n1-c1ccc(Cl)cc1)N1CCCC1,inactive: -1.64%,–
CCOc1ccc(S(=O)(=O)c2cn(Cc3cc(C)ccc3C)c3ccc(OCC)cc3c2=O)cc1,inactive: 2.7%,–
CCOC(=O)Cn1c(=O)oc2cc(S(=O)(=O)N3CCN(c4ccc(C(C)=O)cc4)CC3)ccc21,inactive: -0.575%,–
COc1ccc(NC(=O)Cn2nc(C)c3nn(-c4ccc(Cl)cc4)c(C)c3c2=O)cc1,inactive: 11.6%,–
COc1cccc(Nc2nc3cc(Cl)c(Cl)cc3nc2-n2nc(C)cc2C)c1,inactive: -0.745%,–
